# PubChem BioAssay AID1508642 (National Center for Advancing Translational Sciences (NCATS), 2021)
# Out of some 43,000 compounds screened, about 200 (0.47%) were called active. Not shown: some 12% with an inconclusive outcome. Calls come from the whole dose curve; as a rule, active = well fitted cell-killing curve with a large enough effect; inconclusive = small, poorly fitted or top-dose-only effect, or effect the other way; inactive = flat fitted curve, though single readings scatter. Some of the results follow.
# Test: Cell viability qHTS assay in S16 Pmp22-F2sN cells; note: nearly all actives have a fitted effect of over 65% in size
# Details: S16 Pmp22-F2sN Schwann cells viability, CellTiter-Glo, 24 h; series mostly up to 57.5 µM; activity change, negative = cytotoxicity: at the top concentration
# How it was run: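 Viability was measured by CellTiter-Glo luminescence (15 min, room temperature). This followed 24 h at 37 °C of compound exposure (23 nL pin transfer) in S16 Pmp22-F2sN Schwann cells, 500-1,000 per well.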
# % is set by controls: 0 for no effect and ±100 for the full control effect; potency is the fitted concentration of half-maximal effect.
SMILES,"activity change, negative = cytotoxicity",Potency
CC(=O)N1CCOc2cc(S(=O)(=O)NCc3ccccc3Cl)c(C)cc21,inactive: 12.3%,–
Cc1cc2[nH]c(=O)c(=O)[nH]c2cc1S(=O)(=O)NCc1ccc(F)cc1,inactive: -0.766%,–
CCOCCCNC(=O)c1ccc2c(c1)NC(=O)C(CS(=O)(=O)Cc1ccc(F)cc1Cl)N2 (stereo not given),inactive: 0.436%,–
Cc1cc(C)n(-c2nc3ccccc3nc2Nc2ccc(C(C)C)cc2)n1,inactive: 2.19%,–
O=C(NC1CCCCCC1)C1CCN(C(=O)N2CCOc3ccc(Cl)cc32)CC1,inactive: -22.6%,–
CCCCc1nn2c(=O)cc(COC(=O)c3cccc(NC(=O)COc4ccccc4)c3)nc2s1,inactive: 1.26%,–
Cc1ccc(C2=NN(CC(=O)NCCCN(CC(C)C)CC(C)C)C(=O)CC2)cc1,inactive: 4.5%,–
O=C(Nc1ccc(Cl)cc1Cl)c1cc(S(=O)(=O)N2CCC3(CC2)OCCO3)ccc1F,inactive: -0.924%,–
CCN(CCCNC(=O)CSc1cc(=O)n(C)c2ccccc12)c1ccccc1,inactive: 13.5%,–
CCOc1cccc(NC(=O)C2CC(=O)N(C)C(=Nc3cccc(OC)c3)S2)c1 (stereo not given),inactive: 22.6%,–
Cc1cc(C)c(NC(=O)C(C)n2c(=O)cc(C)c3c(C)nn(-c4ccccc4)c32)c(C)c1 (stereo not given),inactive: 2.03%,–
COc1ccc(CNS(=O)(=O)c2cc3c(cc2C)N(C)CCO3)cc1,inactive: -5.64%,–
Cc1ccc(Cn2cc(C(=O)c3ccc(F)cc3)c(=O)c3cc4c(cc32)OCO4)cc1,inactive: -0.697%,–
CCOC(=O)Cn1c(=O)n(CC2CCCO2)c2nc(-c3ccccc3F)nc(C(N)=O)c21 (stereo not given),inactive: 22.5%,–
Cc1cccc(NC(=O)c2cc(S(=O)(=O)NCc3ccc4c(c3)OCO4)ccc2F)c1C,inactive: -0.294%,–
COC(=O)c1ccc(NC(=O)CCc2c(C)nc3c(-c4ccccc4)c(C)nn3c2C)cc1,inactive: 0.236%,–
CCn1c(CNC(=O)c2ccc(OC)cc2)nnc1SCC(=O)Nc1ccccc1,inactive: -0.765%,–
COc1ccc(-n2c(C)c(C(C)=O)c3cc(OC(=O)c4ccc(C)cc4)ccc32)cc1,inactive: -4.12%,–
CCOC(=O)c1ccc(OCC2c3cc(OC)c(OC)cc3CCN2C(=O)c2ccc(S(=O)(=O)N3CCCC3)cc2)cc1 (stereo not given),inactive: 1.5%,–
CCC1=Nc2cc(C(=O)NCC(C)c3ccccc3)ccc2Sc2ccc(C)cc21 (stereo not given),inactive: -22.5%,–
Cc1ccc(CCNC(=O)c2cn(C)c3ccc(S(=O)(=O)N(C)C4CCCCC4)cc3c2=O)cc1,inactive: 9.78%,–
CCN1CCN(c2ncnc3c2cnn3-c2ccc(C)c(Cl)c2)CC1,inactive: 1.23%,–
COc1ccc(-c2noc(-c3ccc(N4CCCC4)c([N+](=O)[O-])c3)n2)cc1,inactive: -6.39%,–
O=C(NCc1ccc2c(c1)CCN2C(=O)c1ccccc1)Nc1cc(F)ccc1F,inactive: -25.6%,–

SMILES,"activity change, negative = cytotoxicity",Potency
CCOC(=O)Cc1ccc(NC(=O)Nc2ccccc2OCc2cc(=O)n3ccccc3n2)cc1,inactive: -5.09%,–
COc1ccccc1-n1c(=O)c2c3c(sc2n(C)c1=O)CN(C(C)=O)CC3,inactive: 11.5%,–
CCn1nnc2cc(C(=O)Nc3cccc(Cl)c3C)ccc21,inactive: -10.3%,–
COc1ccc(Cn2c(CNS(=O)(=O)c3ccc(C)c(C)c3)nc3cccnc32)cc1,inactive: -4.34%,–
CCOc1ccc(N(CC(=O)Nc2cc(C)ccc2C)S(=O)(=O)c2c(C)[nH]c(=O)[nH]c2=O)cc1,inactive: 4.98%,–
Cc1ccc(NC(=O)CCn2nc(C)c(S(=O)(=O)N3CCCCC3)c2C)cc1Cl,inactive: 1.88%,–
CCOC(=O)c1c(C)sc(-c2c(-c3cc(C)ccc3C)[nH]c3c2c(=O)n(C)c(=O)n3C)c1O,inactive: 1.01%,–
COc1ccc(NC(=O)N2CCc3c(sc4c3CCCC4)C2c2ccccc2OC)cc1 (stereo not given),inactive: -20.2%,–
CC(C)CC(=O)Nc1ccc2nc(SCC(=O)N3CCCC3)sc2c1,inactive: 26.3%,–
Cc1ccc(C)c(CN2C(=O)c3ccccc3S(=O)(=O)c3ccc(C(=O)N4CCc5ccccc54)cc32)c1,inactive: -0.511%,–
Cc1ccc(OCC(=O)NCC(c2ccc(Cl)cc2)N2CCCCC2)cc1 (stereo not given),inactive: 4.75%,–
CCCNC(=O)CSc1nc2ccccc2nc1Cc1ccc(Cl)cc1,inactive: -6.54%,–
CCN(c1ccc(C)cc1)S(=O)(=O)c1nnc(NC(=O)C2CCCCC2)s1,inactive: -5.59%,–
CSc1ccc(CCNC(=O)CCc2c(C)nc3c(c(C)nn3-c3ccc(C)c(C)c3)c2C)cc1,inactive: 15%,–
CCOC(=O)c1cccc(NC(=O)c2ccc3nc(C(C)C)oc3c2)c1,inactive: 3.51%,–
CSc1cccc(NC(=O)CC(c2cccs2)N2Cc3ccccc3C2=O)c1 (stereo not given),inactive: -1.07%,–
COc1cc(-c2noc(CN3CCN(c4cccc(Cl)c4)CC3)n2)cc(OC)c1OC,inactive: 7.51%,–
CCOc1ccccc1NC(=O)N1CCN(C)c2ncccc21,inactive: 1.94%,–
Cc1ccc(NC(=O)CSc2n[nH]c(-c3ccc(F)cc3)n2)cc1F,inactive: -0.217%,–
COc1ccc(Cn2c(=O)n(-c3ccccc3C)c(=O)c3c4c(sc32)CN(C(C)=O)CC4)cc1,inactive: 3.37%,–
O=C(Nc1cccc(Cl)c1Cl)c1cc2nc(-c3ccc(Cl)cc3)cc(C(F)(F)F)n2n1,inactive: 3.25%,–
CCC(C(=O)Nc1nnc2n1CCS2)c1ccccc1 (stereo not given),inactive: 1.05%,–
O=C(NCCc1nc2ccccc2n1Cc1ccccc1)c1ccco1,inactive: 14.1%,–
CCN(CC)CCNC(=O)C1CCN(c2cc(C)nc3c(-c4ccc(Cl)cc4)c(C)nn23)CC1,inactive: -5.26%,–

SMILES,"activity change, negative = cytotoxicity",Potency
Cc1ccc(NS(=O)(=O)c2cnc(N)nc2)c(C)c1,inactive: 1.1%,–
CCN(CC)CCNC(=O)c1cc(-c2ccc(Br)s2)nc2ccccc12,–,active: 31.6 µM
Cc1nc(-n2nc(C)c(Cc3ccc4c(c3)OCO4)c2C)sc1C(=O)Nc1cccc(Cl)c1,inactive: 3.08%,–
CCCCC(=O)OC1=C(C(C)=O)N(Cc2ccccc2)S(=O)(=O)c2ccccc21,inactive: -0.444%,–
O=C(Cn1nc(-c2ccccc2)nc(Cc2ccccc2)c1=O)Nc1ccccc1,inactive: 1.29%,–
Cc1cccc(C(=O)Nc2ccc(C(=O)OCc3cc(=O)n4nc(C5CC5)sc4n3)cc2)c1,inactive: 1.32%,–
COc1ccccc1N1CCN(C(=O)CCc2nnc3n(C)c(=O)c4sccc4n23)CC1,inactive: 5.09%,–
COc1ccc(S(=O)(=O)NCC(c2ccc(N(C)C)cc2)N2CCc3ccccc32)cc1 (stereo not given),inactive: -0.231%,–
CCC(Sc1ncnc2sc3c(c12)CCCC3)C(=O)OC(C)C (stereo not given),inactive: 6.46%,–
CCCC(=O)N1CC(=O)Nc2ccc(Cl)cc2C1c1ccccc1 (stereo not given),inactive: 3.36%,–
Cc1ccc(N2C(=O)NC(NS(=O)(=O)c3ccc(Cl)cc3)(C(F)(F)F)C2=O)cc1C (stereo not given),inactive: 0.953%,–
COc1ccc(S(=O)(=O)N2CCC(c3ccncc3)CC2)cc1OC,inactive: -0.381%,–
CCc1ccc(NC(=O)Cn2c(=O)n(Cc3nc(-c4ccccc4)no3)c(=O)c3cc4c(cc32)OCO4)cc1,inactive: -4.37%,–
CSc1ccc(CCNC(=O)Cn2ncc3c(=O)oc4ccccc4c32)cc1,inactive: 14.4%,–
CCOc1ccc(OCC)c(NC(=O)C2CCN(S(=O)(=O)c3cn(C)cn3)CC2)c1,inactive: 14.8%,–
COCCNC(=O)CSc1cn(CC(=O)N2CCCCCC2)c2ccccc12,inactive: 1.66%,–
CCc1ccc(NC(=O)CSC2=Nc3ccccc3C3=NC(CC(=O)NC4CCCCC4)C(=O)N23)cc1 (stereo not given),inactive: -16.9%,–
Cc1ccc2c(=O)cc(C(=O)Nc3ccc(S(=O)(=O)Nc4nc(C)cc(C)n4)cc3)oc2c1,inactive: -18.7%,–
COc1ccc(NC(=O)C2CCCN(S(=O)(=O)c3ccc4c(c3)CCCC(=O)N4)C2)cc1OC (stereo not given),inactive: -0.553%,–
CCCCN(CCCC)CCNC(=O)c1cn(CC)c2ccc(S(=O)(=O)N3CCc4ccccc4C3)cc2c1=O,inactive: -9.18%,–
CCCN(CCC)CCNC(=O)CN1C(=O)COc2ccc(S(=O)(=O)N3CCC(C)CC3)cc21,inactive: 11%,–
Cc1ccc(-c2nc3ccccc3s2)cc1NC(=O)COc1ccccc1,inactive: 15.6%,–
CCOc1ccc(/C=C/c2nc(C#N)c(N3CCCCC3)o2)cc1,inactive: -1.63%,–
Cc1ccc(OCC(=O)NCC2(N3CCOCC3)CCCCC2)cc1C,inactive: -24.1%,–

SMILES,"activity change, negative = cytotoxicity",Potency
O=C(CN(CCc1ccccc1)S(=O)(=O)c1ccc(Br)cc1)NCc1ccc(Cl)cc1,inactive: -14.1%,–
COc1ccc(N(Cc2cccs2)C(=O)c2ccc(Br)o2)cc1,inactive: -5.7%,–
CCC1CN(C(=O)C2CCN(S(=O)(=O)c3c(C)noc3/C=C/c3ccccc3F)CC2)c2cc(Cl)ccc2O1 (stereo not given),inactive: 3.37%,–
CCOC(=O)Cn1nc(-c2ccccc2)c2cnc3ccc(OCC)cc3c21,inactive: 19.7%,–
CCOC(=O)CSc1nc2c([nH]c3ccccc32)c(=O)n1-c1ccc(OC)cc1,inactive: 0.268%,–
COc1ccc(CN(C(=O)Nc2cccc(OC)c2)C2CCN(C(C)=O)CC2)cc1,inactive: 1.54%,–
COc1ccc(C2c3c(oc4ccc(Cl)cc4c3=O)C(=O)N2CCCN(C)C)cc1OC (stereo not given),inactive: 14.8%,–
COc1cccc(CNC(=O)CN2C(=O)N(c3c(C)cccc3C)S(=O)(=O)c3ccccc32)c1OC,inactive: 11.6%,–
O=c1[nH]c2ccc(NCc3ccc(-c4ccc(Cl)cc4)o3)cc2[nH]1,inactive: 4.48%,–
CCOc1ccccc1Nc1nc(-c2ccc(C)cc2)c(CC(=O)O)s1,inactive: -3.85%,–
CCOc1ccc(NC(=O)Cn2nnc(C(=O)NCc3cccs3)c2N)cc1,inactive: 2.02%,–
COc1ccc2c(c1)CCc1c(C(=O)Nc3c(C)nn(Cc4ccc(Cl)cc4)c3C)noc1-2,inactive: -27.6%,–
CC(=O)c1ccc(Nc2nc3ccccc3nc2-n2nc(C)cc2C)cc1,inactive: -3.91%,–
CC(=O)c1cccc(NC(=O)Cn2c(=O)oc3cc(S(=O)(=O)NC4CCCC4)ccc32)c1,inactive: -2.59%,–
CC(=O)N1CCN(c2nc3c(C)ccc(Cl)c3s2)CC1,inactive: -15%,–
COc1cccc(NC(=O)CSc2nccn2Cc2ccc3c(c2)OCO3)c1,inactive: 12.5%,–
Cc1ccc(C)c(Cn2c3ccccc3c3cnn(CC(=O)NCC(C)c4ccccc4)c(=O)c32)c1 (stereo not given),inactive: 17.3%,–
CCCCOC(=O)c1ccc(NC(=O)Cc2coc3c(C)c(C)ccc23)cc1,inactive: -17.2%,–
COC(=O)c1ccccc1NC(=O)C1(c2cccs2)CCOCC1,inactive: -9.36%,–
CCOC(=O)c1c(C)[nH]c(C)c1S(=O)(=O)N1CCCC(C(=O)Nc2ccc(C)c(N(C)C)c2)C1 (stereo not given),inactive: 9.58%,–
CCOC(=O)c1[nH]c(C)c(CCC(=O)NCc2cccc(C)c2)c1C,inactive: -12.9%,–
Cc1ccc(OCC(=O)N(Cc2ccco2)c2ccccn2)cc1,inactive: 6.11%,–
Cc1cc(C)cc(NC(=O)c2ccc3c(O)c(S(=O)(=O)c4ccccc4)c(=O)[nH]c3c2)c1,inactive: -6.14%,–
